{
  "source": "paper PMC4091835",
  "about": "(Nature structural & molecular biology, 2014)",
  "molecular_target": "Human Cdc42 residues 1–178, constitutively active mutant G12V (human, UniProt P60953 1-178, G12V)",
  "assay": "ITC",
  "data": [
    {"binder": "IRSp53 FL mutant SH3-SWAP (SH3 domain of IRSp53 swapped for that of Eps8) (other) MSLSRSEEMHRLTENVYKTIMEQFNPSLRNFIAMGKNYEKALAGVTYAAKGYFDALVKMGELASESQGSKELGDVLFQMAEVHRQIQNQLEEMLKSFHNELLTQLEQKVELDSRYLSAALKKYQTEQRSKGDALDKCQAELKKLRKKSQGSKNPQKYSDKELQYIDAISNKQGELENYVSDGYKTALTEERRRFCFLVEKQCAVAKNSAAYHSKGKELLAQKLPLWQQACADPSKIPERAVQLMQQVASNGATLPSALSASKSNLVISDPIPGAKPLPVPPELAPFVGRMSAQESTPIMNGVTGPDGEDYSPWADRKAAQPKSLSPPQSQSKLSDSYSNTLPVRKSVTPKNSYATTENKTLPRSSSMAAGLERQPKKYAKSKYDFVARNNSELSVLKDDILEILDDRKQWWKVRNASGDSGFVPNNILDIVRPDGSDRLHMSLQQGKSSSTGNLLDKDDLAIPPPDYGAASRAFPAQTASGFKQRPYSVAVPAFSQGLDDYGARSMSSGSGTLVSTV", "values": [
      {"measurement": "Kd", "result": 3.8, "unit": "µM"}
    ]}
  ]
}
